Among the data in the supplement of paper PMC4723716 are viability index values, retold here.

± gives the uncertainty stated by the source. In all, about 9,900 compounds were measured (“viability index relative to DMSO control”: median about 1, lowest 2% from about 0.85 on). Some of the results follow.

The test concerns Plasmodium falciparum NF54 stage V gametocytes. Kind of test: viability index relative to DMSO control (fraction); higher = less gametocyte killing. As to conditions: 2.5 µM, library set: Broad Institute DOS, incubation time: 72 h. The method in brief:
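In 1,536-well plates, 10 µl of serum-free medium holding P. falciparum NF54 stage V gametocytes (0.75% gametocytemia, 1.25% hematocrit) received compound at 2.5 µM for 72 hr at 37°C in low oxygen. After one to two hours with 3 µl of 2.5 µM MitoTracker Red CMXRos containing 0.13% saponin, red particles of 20–70 µm2 were counted in a single field per well. Viability index is reported as the particle count over the plate mean of wells treated with solvent only.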

In turn, `N#C[C@H]1[C@H](c2ccccc2-c2cccc(F)c2)[C@H](CO)N1C(=O)C1CC1` yielded a viability index of 0.999 ± 0.12.

In the case of `C[C@H]1CCCCO[C@H](CN(C)Cc2ccc(C(=O)O)cc2)[C@@H](C)CN([C@@H](C)CO)C(=O)c2cc(N(C)C)ccc2O1`, the viability index turned out to be 1.06 ± 0.12.

Take `CO[C@H]1CC[C@H]2CCOc3ccc(C#N)cc3C(=O)N(C)C[C@H](c3ccccc3)CC(=O)N(C)C[C@H]1O2`: the viability index was 1.07 ± 0.022.

Regarding `COCC(=O)N1[C@H](CO)[C@@H](c2ccccc2)C12CN(C(=O)c1ccccc1)C2`, the viability index was 1.07 ± 0.09.

`CO[C@@H]1CN(C)C(=O)c2ccc(NC(=O)Nc3cc(F)ccc3F)cc2OC[C@@H](C)N(C(=O)c2ccccn2)C[C@H]1C` came in with a viability index of 0.981 ± 0.066.

Turning to `COc1ccc2c3c([C@@H](CO)N(CC4CCOCC4)C[C@]33CN(Cc4nccs4)C3)n(C)c2c1`, the viability index came to 1.1 ± 0.08.

As to `O=C(Nc1ccccc1F)N1CCCCN2[C@H](C1)[C@H](c1ccc(/C=C/c3ccccc3)cc1)[C@@H]2CO`, the viability index is 0.987 ± 0.023.

The compound `CCS(=O)(=O)Nc1ccc2c(c1)C(=O)N(C)[C@@H]1CC[C@@H](CC(=O)NCc3ccc(OC)cc3)O[C@H]1CO2` gave a viability index of 0.945 ± 0.16.

Compound `C[C@H]1CN([C@@H](C)CO)C(=O)CCCn2nncc2CO[C@H]1CN(C)C(=O)Nc1ccc(-c2cccs2)cc1` displayed a viability index of 1.07 ± 0.09.

In turn, `CNC[C@H]1Oc2ccc(NC(=O)CCC(F)(F)F)cc2C(=O)N([C@H](C)CO)C[C@H]1C` displayed a viability index of 1.036 ± 0.0066.

As for `Cc1noc(C)c1NC(=O)N(C)C[C@H]1Oc2cc(C#CCN(C)C)ccc2S(=O)(=O)N([C@@H](C)CO)C[C@H]1C`, the viability index came to 1.02 ± 0.0021.

`C[C@H]1CN([C@@H](C)CO)C(=O)c2cccc(NC(=O)c3ccncc3)c2O[C@@H]1CN(C)Cc1ccc2c(c1)OCO2` returned a viability index of 1 ± 0.025.

In turn, `N#C[C@@H]1[C@@H](c2ccc(-c3cccnc3)cc2)[C@H](CO)N1C(=O)Nc1ccc(F)cc1` returned a viability index of 1.08 ± 0.019.

In turn, `COc1ccc2c3c([nH]c2c1)[C@@H](CO)N(Cc1cc(F)ccc1F)C[C@]31CN(C1)C(=O)C1CCC1` displayed a viability index of 0.88 ± 0.032.

`CN1C(=O)c2cc(NC(=O)c3ccc4c(c3)OCO4)ccc2OC[C@H]2O[C@H](CC(=O)O)CC[C@@H]21` returned a viability index of 1.15 ± 0.058.

Compound `CO[C@H]1CC[C@H]2CCOc3ccc(C#N)cc3C(=O)N(C)C[C@@H](c3ccccc3)CC(=O)N(C)C[C@H]1O2` registered a viability index of 1.04 ± 0.024.

`O=C(C[C@@H]1C[C@H]2c3cc(NS(=O)(=O)c4ccccc4)ccc3O[C@H]2[C@H](CO)O1)N1CCOCC1` gave a viability index of 1.015 ± 0.0092.

In turn, `N#C[C@H]1[C@@H](c2ccccc2C2=CCCCC2)[C@@H](CO)N1S(=O)(=O)c1ccccc1` yielded a viability index of 1.09 ± 0.14.

The compound `Cc1ccccc1-c1ccc([C@H]2[C@H](CO)N3CCCCN(S(=O)(=O)Cc4ccccc4)C[C@@H]23)cc1` displayed a viability index of 0.924 ± 0.034.

In turn, `CN1C(=O)c2cc(NC(=O)c3ccc4c(c3)OCO4)ccc2OC[C@@H]2O[C@H](CC(=O)O)CC[C@H]21` showed a viability index of 1.17 ± 0.096.

In the case of `CO[C@H]1CN(C)C(=O)c2ccc(NS(=O)(=O)CC(F)(F)F)cc2OC[C@@H](C)N(C(=O)NC(C)C)C[C@@H]1C`, the viability index amounted to 1.02 ± 0.095.

`CC(C)CC#Cc1ccc([C@H]2[C@@H](CO)N3CCCCN(C(=O)Nc4ccccc4)C[C@@H]23)cc1` came in with a viability index of 1.02 ± 0.057.

`CO[C@H](CN(C)Cc1nccs1)[C@H](C)CN([C@@H](C)CO)S(=O)(=O)c1ccc(F)cc1` returned a viability index of 0.963 ± 0.087.

For `CO[C@H]1CC[C@H]2CCN(C)C(=O)[C@@H](C)N(C)C(=O)c3cccc(C#N)c3OC[C@H]1O2`, the viability index was 1.059 ± 0.0019.

Turning to `C/C=C/c1ccc([C@H]2[C@@H](CO)N(CC3CCCC3)C23CN(S(=O)(=O)CC)C3)cc1`, the viability index was found to be 1.116 ± 0.011.

As to `O=C(Cc1ccncc1)NCC[C@H]1CC[C@H](NS(=O)(=O)c2ccccc2Cl)[C@@H](CO)O1`, the viability index is 1.114 ± 0.011.

As for `CO[C@H](CN(C)C(=O)c1ccc2c(c1)OCO2)[C@@H](C)CN([C@H](C)CO)S(=O)(=O)c1ccc(Cl)cc1`, the viability index came out at 1.16 ± 0.098.

As for `COc1ccc(NC(=O)N2C[C@H](O)COC[C@@H]3O[C@H](CC(=O)NCc4ccncn4)CC[C@H]32)cc1`, the viability index is 1.07 ± 0.038.

The compound `CN1c2ccc(Br)cc2[C@@H]2[C@@H](CCN2C(=O)Cc2ccccc2)[C@@H]1CO` yielded a viability index of 1.03 ± 0.061.

`C/C=C/c1ccc([C@@H]2[C@H](CO)N(S(=O)(=O)CC)C23CN(C(C)=O)C3)cc1` returned a viability index of 1 ± 0.098.

The compound `COCCNC(=O)C[C@@H]1C[C@H]2c3cc(NC(=O)CN(C)C)ccc3O[C@H]2[C@H](CO)O1` yielded a viability index of 1.11 ± 0.037.

With `Cc1noc(C)c1S(=O)(=O)N(C)C[C@@H]1OCc2cn(nn2)CCCC(=O)N([C@H](C)CO)C[C@H]1C`, the viability index was 1.07 ± 0.039.

In the case of `CCCC#Cc1ccc([C@@H]2[C@H]3CN(CCC)CCCCN3[C@H]2CO)cc1`, the viability index came out at 1.01 ± 0.034.

In turn, `CC(=O)NC[C@@H]1[C@@H](c2ccc(C#Cc3ccccc3F)cc2)[C@@H](CO)N1C(C)=O` displayed a viability index of 0.953 ± 0.059.

Compound `COc1cccc(CN2C[C@]3(CCN(C)CC3)c3c([nH]c4cc(OC)ccc34)[C@@H]2CO)c1` showed a viability index of 0.976 ± 0.058.
